# Laboratory results taken from the supplement of paper PMC8728848.
# This is one part of the list.
# Experiments:
# Assay in all cases: glycan array binding signal (z-score within array); higher = stronger binding
# Settings in all cases: glycan notation: IUPAC condensed, linker removed
# [1] = biological target: Gal(b1-3)[Fuc(a1-4)]GlcNAc(b1-3)Gal(b1-4)[Fuc(a1-3)]GlcNAc
# Method in brief: (§1)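 Negative Z-scores can be read as non-binding. The Z-score is calculated within each array and then averaged across arrays of one protein sequence at different concentrations or buffers and across linkers. Arrays, 3228 in all, were curated from the Consortium for Functional Glycomics database and kept only where the protein sequence was available.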
# [2] = biological target: Gal(b1-3)[Fuc(a1-4)]GlcNAc(b1-6)GalNAc
# Method in brief: as §1
# [3] = biological target: Gal(b1-3)[GlcNAc(b1-6)]GalNAc
# Method in brief: as §1
# [4] = biological target: Gal(b1-3)[Neu5Ac(a2-6)]GalNAc
# Method in brief: as §1
# [5] = biological target: Gal(b1-3)[Neu5Ac(a2-6)]GlcNAc(b1-4)Gal(b1-4)Glc
# Method in brief: as §1
# [6] = biological target: Gal(b1-3)[Neu5Ac(b2-6)]GalNAc
# Method in brief: as §1
# [7] = biological target: Gal(b1-4)Gal
# Method in brief: as §1
# [8] = biological target: Gal(b1-4)GalNAc(a1-3)[Fuc(a1-2)]Gal(b1-4)GlcNAc
# Method in brief: as §1
# [9] = biological target: Gal(b1-4)GalNAc(b1-3)[Fuc(a1-2)]Gal(b1-4)GlcNAc
# Method in brief: as §1
# [10] = biological target: Gal(b1-4)Glc
# Method in brief: as §1
# [11] = biological target: Gal(b1-4)Glc6S
# Method in brief: as §1
# [12] = biological target: Gal(b1-4)GlcNAc
# Method in brief: as §1
# [13] = biological target: Gal(b1-4)GlcNAc(a1-6)Gal(b1-4)GlcNAc
# Method in brief: as §1
# [14] = biological target: Gal(b1-4)GlcNAc(b1-2)Man
# Method in brief: as §1
# [15] = biological target: Gal(b1-4)GlcNAc(b1-2)Man(a1-3)Man(b1-4)GlcNAc(b1-4)GlcNAc
# Method in brief: as §1
# [16] = biological target: Gal(b1-4)GlcNAc(b1-2)Man(a1-3)[Gal(b1-4)GlcNAc(b1-2)Man(a1-6)]Man(b1-4)GlcNAc(b1-4)GlcNAc
# Method in brief: as §1
# [17] = biological target: Gal(b1-4)GlcNAc(b1-2)Man(a1-3)[Gal(b1-4)GlcNAc(b1-2)Man(a1-6)]Man(b1-4)GlcNAc(b1-4)[Fuc(a1-6)]GlcNAc
# Method in brief: as §1
# [18] = biological target: Gal(b1-4)GlcNAc(b1-2)Man(a1-3)[Gal(b1-4)GlcNAc(b1-2)Man(a1-6)][Gal(b1-4)GlcNAc(b1-4)]Man(b1-4)GlcNAc(b1-4)[Fuc(a1-6)]GlcNAc
# Method in brief: as §1
# [19] = biological target: Gal(b1-4)GlcNAc(b1-2)Man(a1-3)[Gal(b1-4)GlcNAc(b1-2)Man(a1-6)][GlcNAc(b1-4)]Man(b1-4)GlcNAc(b1-4)[Fuc(a1-6)]GlcNAc
# Method in brief: as §1
# [20] = biological target: Gal(b1-4)GlcNAc(b1-2)Man(a1-3)[GlcNAc(b1-2)Man(a1-6)]Man(b1-4)GlcNAc(b1-4)GlcNAc
# Method in brief: as §1
# [21] = biological target: Gal(b1-4)GlcNAc(b1-2)Man(a1-3)[GlcNAc(b1-4)][Gal(b1-4)GlcNAc(b1-2)Man(a1-6)]Man(b1-4)GlcNAc(b1-4)GlcNAc
# Method in brief: as §1
# [22] = biological target: Gal(b1-4)GlcNAc(b1-2)Man(a1-3)[Man(a1-6)]Man(b1-4)GlcNAc(b1-4)GlcNAc
# Method in brief: as §1
# [23] = biological target: Gal(b1-4)GlcNAc(b1-2)Man(a1-6)Man(b1-4)GlcNAc(b1-4)GlcNAc
# Method in brief: as §1
# [24] = biological target: Gal(b1-4)GlcNAc(b1-2)Man(a1-6)[GlcNAc(b1-2)Man(a1-3)]Man(b1-4)GlcNAc(b1-4)GlcNAc
# Method in brief: as §1
# [25] = biological target: Gal(b1-4)GlcNAc(b1-2)Man(a1-6)[Man(a1-3)]Man(b1-4)GlcNAc(b1-4)GlcNAc
# Method in brief: as §1
# [26] = biological target: Gal(b1-4)GlcNAc(b1-2)[Gal(b1-4)GlcNAc(b1-4)]Man(a1-3)[Gal(b1-4)GlcNAc(b1-2)Man(a1-6)]Man(b1-4)GlcNAc(b1-4)GlcNAc
# Method in brief: as §1
# [27] = biological target: Gal(b1-4)GlcNAc(b1-2)[Gal(b1-4)GlcNAc(b1-4)]Man(a1-3)[Gal(b1-4)GlcNAc(b1-2)[Gal(b1-4)GlcNAc(b1-6)]Man(a1-6)]Man(b1-4)GlcNAc(b1-4)GlcNAc
# Method in brief: as §1
# [28] = biological target: Gal(b1-4)GlcNAc(b1-2)[Gal(b1-4)GlcNAc(b1-4)]Man(a1-3)[GlcNAc(b1-4)][Gal(b1-4)GlcNAc(b1-2)Man(a1-6)]Man(b1-4)GlcNAc(b1-4)GlcNAc
# Method in brief: as §1
# [29] = biological target: Gal(b1-4)GlcNAc(b1-2)[Gal(b1-4)GlcNAc(b1-4)]Man(a1-3)[GlcNAc(b1-4)][Gal(b1-4)GlcNAc(b1-2)[Gal(b1-4)GlcNAc(b1-6)]Man(a1-6)]Man(b1-4)GlcNAc(b1-4)GlcNAc
# Method in brief: as §1
# [30] = biological target: Gal(b1-4)GlcNAc(b1-2)[Gal(b1-4)GlcNAc(b1-6)]Man(a1-6)[Gal(b1-4)GlcNAc(b1-2)Man(a1-3)]Man(b1-4)GlcNAc(b1-4)GlcNAc
# Method in brief: as §1
# [31] = biological target: Gal(b1-4)GlcNAc(b1-2)[Gal(b1-4)GlcNAc(b1-6)]Man(a1-6)[Gal(b1-4)GlcNAc(b1-2)Man(a1-3)]Man(b1-4)GlcNAc(b1-4)[Fuc(a1-6)]GlcNAc
# Method in brief: as §1
# [32] = biological target: Gal(b1-4)GlcNAc(b1-2)[Gal(b1-4)GlcNAc(b1-6)]Man(a1-6)[GlcNAc(b1-4)][Gal(b1-4)GlcNAc(b1-2)Man(a1-3)]Man(b1-4)GlcNAc(b1-4)GlcNAc
# Method in brief: as §1
# [33] = biological target: Gal(b1-4)GlcNAc(b1-2)[Gal(b1-4)GlcNAc(b1-6)]Man(a1-6)[GlcNAc(b1-4)][Gal(b1-4)GlcNAc(b1-2)[Gal(b1-4)GlcNAc(b1-4)]Man(a1-3)]Man(b1-4)GlcNAc(b1-4)[Fuc(a1-6)]GlcNAc
# Method in brief: as §1
# [34] = biological target: Gal(b1-4)GlcNAc(b1-3)Gal(b1-3)GalNAc
# Method in brief: as §1
# [35] = biological target: Gal(b1-4)GlcNAc(b1-3)Gal(b1-3)GlcNAc
# Method in brief: as §1
# [36] = biological target: Gal(b1-4)GlcNAc(b1-3)Gal(b1-4)Glc
# Method in brief: as §1
# [37] = biological target: Gal(b1-4)GlcNAc(b1-3)Gal(b1-4)GlcNAc
# Method in brief: as §1
# [38] = biological target: Gal(b1-4)GlcNAc(b1-3)Gal(b1-4)GlcNAc(b1-2)Man(a1-3)[Gal(b1-4)GlcNAc(b1-3)Gal(b1-4)GlcNAc(b1-2)Man(a1-6)]Man(b1-4)GlcNAc(b1-4)GlcNAc
# Method in brief: as §1
binder,measurement,setting,value
"CC1G-11630 (Coprinopsis cinerea), A8P462 (protein) MTTEAKIKLKAVVYWELVFDYDNSSNTGEITQSYTVKISQTSTRSTFASEVSTTTIDTLTKNNQEVDVGASYGAISANVSASWEHSEEVNNMLEKTTQTSTEDTYTVETEETRSYTIGPGGMLSLFQKHFSGPGMHVAFDVFTTDLELAKERTEIDIDVDVEAIRFVREIRVVYTDIMSEAPGDHVREINGKNPDINYGFNGKFVWLVPEQTRKTAQALTNVEFVSQAESDDRYWDLAAGAGGSNRYLIPVYDTNNKDKIYELALWRSDSYITHDKVKAAGWSGTTGDINSGRGGTYLNLVWKTRHAY",glycan array binding signal (z-score),[1],-0.245
same,glycan array binding signal (z-score),[2],0.201
same,glycan array binding signal (z-score),[3],-0.252
same,glycan array binding signal (z-score),[4],-0.079
same,glycan array binding signal (z-score),[5],-0.411
same,glycan array binding signal (z-score),[6],-0.611
same,glycan array binding signal (z-score),[7],1.01
same,glycan array binding signal (z-score),[8],-0.427
same,glycan array binding signal (z-score),[9],-0.639
same,glycan array binding signal (z-score),[10],-0.052
same,glycan array binding signal (z-score),[11],0.325
same,glycan array binding signal (z-score),[12],-0.272
same,glycan array binding signal (z-score),[13],-0.631
same,glycan array binding signal (z-score),[14],0.606
same,glycan array binding signal (z-score),[15],-0.45
same,glycan array binding signal (z-score),[16],-0.378
same,glycan array binding signal (z-score),[17],-0.324
same,glycan array binding signal (z-score),[18],-0.593
same,glycan array binding signal (z-score),[19],-0.467
same,glycan array binding signal (z-score),[20],-0.5
same,glycan array binding signal (z-score),[21],-0.354
same,glycan array binding signal (z-score),[22],-0.035
same,glycan array binding signal (z-score),[23],-0.208
same,glycan array binding signal (z-score),[24],-0.325
same,glycan array binding signal (z-score),[25],-0.474
same,glycan array binding signal (z-score),[26],-0.738
same,glycan array binding signal (z-score),[27],-0.449
same,glycan array binding signal (z-score),[28],-0.074
same,glycan array binding signal (z-score),[29],0.277
same,glycan array binding signal (z-score),[30],0.272
same,glycan array binding signal (z-score),[31],-0.458
same,glycan array binding signal (z-score),[32],-0.647
same,glycan array binding signal (z-score),[33],-0.51
same,glycan array binding signal (z-score),[34],-0.343
same,glycan array binding signal (z-score),[35],-0.286
same,glycan array binding signal (z-score),[36],-0.507
same,glycan array binding signal (z-score),[37],-0.335
same,glycan array binding signal (z-score),[38],2.49
